# Experimental data from the supplement of paper PMC3334620.
# The full ranking holds about 33,000 sequences; the median of “E-score (-0.5 to 0.5)” is about -0.043, and the highest 2% start at about 0.37. The list shows a part of the results.
# Target: T1, Upc2 (UniProt Q12151)
# T1 sequence: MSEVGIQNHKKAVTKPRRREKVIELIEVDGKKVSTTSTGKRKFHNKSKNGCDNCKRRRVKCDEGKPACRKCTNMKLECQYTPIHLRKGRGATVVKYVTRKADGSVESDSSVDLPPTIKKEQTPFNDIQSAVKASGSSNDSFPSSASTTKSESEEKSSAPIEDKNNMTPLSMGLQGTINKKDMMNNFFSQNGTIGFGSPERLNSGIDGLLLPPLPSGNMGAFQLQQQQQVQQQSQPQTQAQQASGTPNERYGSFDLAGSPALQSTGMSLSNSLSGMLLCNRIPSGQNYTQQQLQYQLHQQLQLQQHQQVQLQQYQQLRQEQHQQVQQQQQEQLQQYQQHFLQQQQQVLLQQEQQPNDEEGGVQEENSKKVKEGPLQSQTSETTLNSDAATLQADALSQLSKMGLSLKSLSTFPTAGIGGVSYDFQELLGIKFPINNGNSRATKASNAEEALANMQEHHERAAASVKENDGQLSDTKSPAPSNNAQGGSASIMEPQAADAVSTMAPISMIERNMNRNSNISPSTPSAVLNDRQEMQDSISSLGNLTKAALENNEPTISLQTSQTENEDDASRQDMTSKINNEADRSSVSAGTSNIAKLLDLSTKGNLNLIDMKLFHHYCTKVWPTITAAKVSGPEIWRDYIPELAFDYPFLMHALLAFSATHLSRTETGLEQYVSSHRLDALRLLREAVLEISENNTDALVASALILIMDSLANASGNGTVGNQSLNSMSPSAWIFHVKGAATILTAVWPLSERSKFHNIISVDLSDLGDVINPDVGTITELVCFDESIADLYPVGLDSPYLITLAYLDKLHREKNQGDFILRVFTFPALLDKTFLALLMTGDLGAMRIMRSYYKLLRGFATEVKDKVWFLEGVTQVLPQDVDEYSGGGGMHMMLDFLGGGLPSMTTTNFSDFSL
# Assay: PBM E-score (8-mer binding enrichment) (E-score (-0.5 to 0.5)); higher = stronger / more preferred TF binding; most listed sequences are background and not binding sites
# Conditions: protein concentration: 200 nM; construct: GST-full length
# Method in brief: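 E-scores (a modified Wilcoxon-Mann-Whitney statistic) were assigned by the Universal PBM Analysis Suite to every ungapped eight-base word pooled with its reverse complement. The input came from universal all-10-mer Agilent arrays made double-stranded by primer extension and probed with GST-tagged yeast transcription factors at about 100-200 nM. Fluorescent anti-GST detected bound protein, and masliner normalised the scans.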
row,Sequence,PBM E-score
1,CGGGTCGC,0.165
2,TAGGTAAA,0.00379
3,TGTAGAAA,-0.108
4,TCTCATAA,-0.104
5,ATGCTCAC,-0.0484
6,CCTTCGCC,-0.279
7,ATTCGCGG,-0.0484
8,ACATCTCC,-0.12
9,AACCTGGA,-0.221
10,CCCCTCAG,-0.161
11,CATACAAC,-0.0696
12,CCGGATTC,-0.113
13,CTCCTACA,-0.186
14,AACCACTT,0.121
15,AGCTTCCC,0.0109
16,TGCTACAA,-0.173
17,TACGCCCA,0.127
18,CGGTATAG,0.225
19,CATCCTTC,-0.197
20,CTTAATGC,0.112
21,AAACAATT,-0.15
22,AAACGGTG,0.386

row,Sequence,PBM E-score
1,CTAATTAA,-0.0543
2,AACAATAT,0.137
3,CACCGGAG,-0.279
4,AGGGGAGC,-0.16
5,ACAAACCC,-0.0784
6,GGACGGCC,-0.127
7,CTATTCGA,0.247
8,CTTGCCGC,-0.115
9,CAAAGTCA,-0.0235
10,AGATGCAC,-0.0352
11,GAATTCAA,0.0122
12,CCGAGGTA,0.125
13,GGCATCCA,-0.101
14,GGTTAGCA,-0.298
15,AAAAATGC,0.0191
16,GAAGCTTC,-0.235
17,AATCTTCA,-0.0321
18,CGACCCAC,0.0439
19,AGGAAGCC,-0.263
20,AAGCATTG,-0.00979
21,GAACGGAC,0.201
22,AGGAGATC,-0.153

row,Sequence,PBM E-score
1,AGCCTTAA,-0.0139
2,AAGGGTAC,0.137
3,AACAAGTG,-0.191
4,GTGGAGCA,-0.146
5,AAGTATTG,-0.137
6,GGAGCCGA,-0.151
7,CCCAGTTC,-0.161
8,TATTTGCA,0.0347
9,TGTCCACA,-0.209
10,ACACTGAT,-0.118
11,GTGTTTGA,0.159
12,GCTCCGAA,-0.0241
13,AGTATTCC,-0.0174
14,CAGCACTA,-0.154
15,GAGTAGTA,0.0241
16,CCAGTACC,0.0225
17,CCTACCCG,-0.0821
18,CACATAGC,-0.285
19,AGCCGGGG,-0.223
20,CGATCGAA,0.24
21,ATGGCGCA,0.0218
22,AATCCGCG,0.0293

row,Sequence,PBM E-score
1,ACTATTTA,0.0589
2,CTACTTAC,0.0612
3,CATCTGAC,-0.272
4,AATTCTGT,-0.165
5,GCCGAACC,-0.0772
6,AACAATTA,0.066
7,GGTGGGAC,-0.158
8,AACTATCC,0.0104
9,AGCTATGC,0.0343
10,CAATGGCA,-0.196
11,CGTTACAC,0.118
12,ATTACACC,0.0316
13,CTACGCAC,-0.0589
14,GGTGTCCA,-0.0671
15,ACTGAAAG,-0.105
16,CCCTTGGA,0.0336
17,CCAGCGTA,0.238
18,GCGTTTCA,-0.0903
19,AATGAGAC,-0.13
20,TCAACCAA,-0.188
21,ACCTTGAT,0.00092
22,TGATGTAA,-0.0191

row,Sequence,PBM E-score
1,GTGGTTCA,-0.0569
2,TAACCGGA,0.0204
3,CACTACAC,-0.0177
4,CGTTTGGA,0.428
5,CTTTGGCC,0.0171
6,CGGGCATA,0.0778
7,AAGCTGCG,-0.0191
8,AATCAGTA,0.0172
9,GCGATGTA,0.106
10,AGTACCAG,-0.134
11,AGTCTGTG,-0.193
12,ACCTCTGC,-0.21
13,GGACGTGA,-0.187
14,AATGCTTC,0.0794
15,GAGTAAAC,0.279
16,ATTACGTA,0.309
17,GTTAGAAC,0.179
18,AGCTCGGG,-0.0138
19,ACCTACTA,0.00208
20,TTACCGAA,0.255
21,TGATATCA,-0.175
